# Results published in PubChem BioAssay AID485294 (National Center for Advancing Translational Sciences (NCATS), 2010).
# Among all 370,000 compounds or so, about 150 (0.041%) were called active. The inconclusive results got no clear call from the source; some entries with a clear call stand among them for comparison. Calls come from the whole dose curve; as a rule, active = well fitted inhibition curve with a large enough effect; inconclusive = small, poorly fitted or top-dose-only effect; inactive = flat fitted curve, though single readings scatter. Potencies of inconclusive entries are left out as doubtful fits.
# Target: Beta-lactamase (Escherichia coli (strain K12)) (UniProt P00811)
# UniProt P00811, sequence (P00811 whole entry, looked up): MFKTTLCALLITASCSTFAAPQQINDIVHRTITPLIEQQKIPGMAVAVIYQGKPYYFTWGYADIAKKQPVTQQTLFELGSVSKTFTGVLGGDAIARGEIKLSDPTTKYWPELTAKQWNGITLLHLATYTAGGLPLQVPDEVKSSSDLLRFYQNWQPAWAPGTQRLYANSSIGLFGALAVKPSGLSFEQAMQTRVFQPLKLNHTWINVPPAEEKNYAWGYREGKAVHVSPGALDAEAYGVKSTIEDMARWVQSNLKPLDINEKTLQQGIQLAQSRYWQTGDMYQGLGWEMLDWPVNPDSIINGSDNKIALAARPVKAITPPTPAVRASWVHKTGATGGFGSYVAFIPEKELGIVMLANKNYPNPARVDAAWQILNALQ
# Experiment: qHTS Inhibitors of AmpC Beta-Lactamase (assay with detergent); note: nearly all actives have a fitted effect of over 25% in size
# Details: AmpC hydrolysis of nitrocefin, absorbance 480 nm, 0.01% Triton; series mostly up to 114 µM
# Outline: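 20 mM phosphate pH 7.0 + 0.01% (detergent screen) or 0.0001% Triton X-100; 5.3 nM AmpC reagent; cpd preinc 15 min RT; nitrocefin (800 uM stock) to start; A480 q20 s × 4 min; Activity was normalised to no-enzyme and no-compound control wells.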
# Potency is the fitted concentration of half-maximal effect; tags give direction and shape of the fitted curve.
row,SMILES,Potency
1,O=C(COC(=O)/C=C/c1ccccc1)Nc1ccccc1Br,inactive
2,Cc1cc(C)c(NC(=O)CSc2nncn2-c2cccnc2)c(C)c1,"inconclusive [inhibitor, full curve, poor fit]"
3,CSc1cccc(NC(=O)c2cnn(-c3ccc(F)cc3)c2-n2cccc2)c1,inactive
4,Cc1ccc(N2CC(C(=O)Nc3nnc(SCC(=O)NCC4CCCO4)s3)CC2=O)cc1 (stereo not given),"inconclusive [inhibitor, partial curve]"
5,O=C(Nc1ccccc1)NC1CC2CCC(C1)N2Cc1nnnn1Cc1ccc2c(c1)OCO2 (stereo not given),"inconclusive [inhibitor, full curve]"
6,O=C(CN(Cc1ccc(F)cc1)S(=O)(=O)c1ccc(S(=O)(=O)N2CCOCC2)cc1)Nc1ccccc1,inactive
7,Cc1c(OCC(=O)N2C[C@H]3C[C@@H](C2)c2cccc(=O)n2C3)ccc2c3c(c(=O)oc12)CCCC3,"inconclusive [inhibitor, full curve, poor fit]"
8,C=CC[C@@H]1C=C[C@H](O/N=C/[C@@H](NS(=O)(=O)c2ccc(C)cc2)[C@H](C)/C=C/CC(=O)OC)[C@@H](CO)O1,"inconclusive [inhibitor, full curve, poor fit]"
9,CCOc1cc(NS(=O)(=O)CC)c(OCC)cc1NC(=O)c1ccco1,"inconclusive [inhibitor, full curve, poor fit]"
10,COc1cc(Nc2ccc(C)cc2)c([N+](=O)[O-])nc1[N+](=O)[O-],inactive
11,Cc1ccc(C2c3[nH]c4ccccc4c3C[C@H]3C(=O)N(c4ccccc4C(=O)N4CCC(C(=O)O)CC4)C(=O)N23)cc1 (stereo not given in full),"inconclusive [inhibitor, partial curve]"
12,CCOc1ccc(CCNC(=O)c2ccc(OCc3c(C)noc3C)cc2)cc1OCC,"inconclusive [inhibitor, single point]"
13,O=C1[C@H]2[C@@H](c3ccc(Cl)cc3)N3C(=O)N(c4cccc(Cl)c4)C(=O)[C@@]3(Cc3ccccc3)[C@H]2C(=O)N1C1CCCCC1,inactive
14,O=C(O)C1CCCN(S(=O)(=O)c2cccc3cccnc23)C1 (stereo not given),"inconclusive [inhibitor, full curve, poor fit]"
15,O=C1OC2(CCCCC2)CC2=C1C1O[C@](CCCCN3C(=O)c4ccccc4C3=O)(Cc3ccccc31)O2,"inconclusive [inhibitor, partial curve, poor fit]"
16,CCOc1ccc(C(=O)NCCC(=O)N2CCC3(CC2)NCCc2[nH]cnc23)cc1OCC,"inconclusive [inhibitor, full curve, poor fit]"
17,CCN(CC)CC(=O)Nc1ccc(-c2nc3cc(NC(=O)CN(CC)CC)ccc3o2)cc1,"inconclusive [inhibitor, full curve, poor fit]"
18,COCCN(C(=O)Cn1c(C(F)(F)F)nc2ccccc21)c1c(N)n(Cc2ccccc2)c(=O)[nH]c1=O,inactive
19,O=C(CSc1nnc(Cn2cnc3ccccc32)o1)c1ccccc1,"inconclusive [inhibitor, full curve, poor fit]"
20,COc1ccc2cc3cc(C(=O)NCCN4CCc5ccccc5C4)sc3nc2c1,"inconclusive [inhibitor, partial curve]"
21,CC(=O)Nc1ccc(OCCOc2ccc(NC(C)=O)cc2)cc1,inactive
22,N#Cc1ccccc1S(=O)(=O)N1CCN(CC(O)COc2ccccc2F)CC1 (stereo not given),inactive

row,SMILES,Potency
1,COc1cc(O)c2c(c1)OC(C)(C)CC2=O,"inconclusive [inhibitor, single point]"
2,Cc1ccc(/C=N/NC(=O)CSc2nc3ccccc3n2C)s1,"inconclusive [inhibitor, partial curve, poor fit]"
3,Cc1noc(C)c1CSCC(=O)Nc1nc2ccc(Oc3ccccc3)cc2s1,"inconclusive [inhibitor, partial curve, poor fit]"
4,CC(C)OC(=O)Cn1nnc(-c2ccccc2)n1,"inconclusive [inhibitor, full curve, poor fit]"
5,CCN(CC)CCN1C(=O)c2cccc3cc(N)cc(c23)C1=O,inactive
6,CC(=O)n1nc(-c2cccnc2)nc1N,"inconclusive [inhibitor, partial curve, poor fit]"
7,CC1CC(C)CN(C(=O)CSc2nnc(-c3ccco3)o2)C1 (stereo not given),"inconclusive [inhibitor, single point]"
8,OCCN1CCN(c2ncnc3sc(-c4ccccc4)cc23)CC1,"inconclusive [inhibitor, full curve, poor fit]"
9,CCc1ccc(-n2nnc(-c3nc(-c4cccs4)no3)c2N)cc1,inactive
10,O=C(c1cccnc1)N1CCN(S(=O)(=O)c2ccc(Cl)cc2)CC1,"inconclusive [inhibitor, full curve]"
11,Cc1ccc(S(=O)(=O)NC(C)C(=O)Nc2cccc([N+](=O)[O-])c2)cc1 (stereo not given),"inconclusive [inhibitor, full curve]"
12,CC(=O)Oc1ccc(N2C(=O)C3C(C2=O)C2(C)C=CC3(C)O2)cc1 (stereo not given),"inconclusive [inhibitor, partial curve, poor fit]"
13,CC(C)n1c(=O)[nH][nH]c1=S,inactive
14,COc1cccc(CNC(=O)CN2CCC(c3nc4ccc(C)cc4[nH]3)CC2)c1,inactive
15,CC(C)c1ccc(CN2CCC(C(=O)NCc3cccnc3)CC2)cc1,"inconclusive [inhibitor, partial curve]"
16,CCOc1cc(C(=S)N2CCOCC2)ccc1O,"inconclusive [inhibitor, single point]"
17,O=C(c1cc(-c2ccccc2)nc2ccccc12)N1N=C(C(F)F)CC1(O)C(F)F (stereo not given),"inconclusive [inhibitor, full curve, poor fit]"
18,COc1ccc(SCCc2nnc(-c3ccccc3)o2)cc1,inactive
19,CN(C)CCCN(C(=O)COc1ccc(Cl)cc1)c1nc2cc3c(cc2s1)OCCO3,"inconclusive [inhibitor, full curve]"
20,CN(C(=S)Nc1ccccc1F)C1(c2ccccc2Cl)CCCCC1=O (stereo not given),"inconclusive [inhibitor, partial curve]"
21,CN1CCN(Cc2cn(C)c3ccccc23)CC1CCO (stereo not given),"inconclusive [inhibitor, full curve, poor fit]"
22,O=C(COC(=O)/C=C/c1ccc(Br)o1)NCCCN1CCCC1=O,"inconclusive [inhibitor, partial curve, poor fit]"

row,SMILES,Potency
1,CCOC(=O)CCCCC(=O)c1[nH]c(=O)[nH]c1CSc1nnc2c3ccccc3n(C(C)C)c2n1,"inconclusive [inhibitor, partial curve]"
2,O=C(COC(=O)c1cc([N+](=O)[O-])ccc1NCc1ccccc1)NC1CCCCC1,"inconclusive [inhibitor, partial curve]"
3,COc1ccc(NC(=O)c2c(C)oc3ccc(O)c(CN4CCC(C)CC4)c23)cc1Cl,inactive
4,COc1cc(C(=O)NCc2nnc(SCC(=O)Nc3nccs3)o2)cc(OC)c1OC,"inconclusive [inhibitor, partial curve]"
5,Cc1nn(CCC(=O)NNC(=S)Nc2ccc(F)cc2)c(C)c1[N+](=O)[O-],inactive
6,COc1ccccc1CC(=O)NN1C(=O)c2ccccc2C1=O,"inconclusive [inhibitor, full curve]"
7,NC(=O)[C@@H]1CCCCNc2c(F)cc([N+](=O)[O-])cc2C(=O)N[C@@H](CC(=O)O)C(=O)N[C@@H](CCC(=O)O)C(=O)N1,"inconclusive [inhibitor, partial curve, poor fit]"
8,CCC(=O)N/N=C(\C)CC(=O)Nc1ccccc1-c1ccccc1,"inconclusive [inhibitor, full curve, poor fit]"
9,COC(=O)c1ccccc1NC(=O)CN(c1ccc(C)cc1)S(C)(=O)=O,"inconclusive [inhibitor, full curve, poor fit]"
10,Cc1ccc2oc(-c3cccc(N)c3)nc2c1,inactive
11,Cc1ccc(C(=O)N/C(=C/c2ccco2)C(=O)NC2CCS(=O)(=O)C2)cc1 (stereo not given),"inconclusive [inhibitor, full curve, poor fit]"
12,COCCn1c(C)cc(C(=O)COC(=O)c2ccccc2Br)c1C,inactive
13,CC(=O)c1ccc(NC(=O)COC(=O)c2ccc(F)cc2F)cc1,"inconclusive [inhibitor, full curve, poor fit]"
14,O=C(COC(=O)c1cccnc1)Nc1ccccc1,inactive
15,CCOc1ccc2[nH]c(=O)c(CN(Cc3ccco3)C(=O)c3ccc(Br)cc3)cc2c1,"inconclusive [inhibitor, full curve, poor fit]"
16,O=C(N/N=C/c1cccc(Cl)c1)c1c(O)c2c([nH]c1=O)CCCC2,inactive
17,O=C(CCNS(=O)(=O)c1c(Cl)cccc1Cl)OCC(=O)c1ccccc1F,"inconclusive [inhibitor, partial curve, poor fit]"
18,CCC(=O)NCCn1ccc2ccccc21,inactive
19,CCOC(=O)c1c(NC(=O)C(C)Sc2cccc[n+]2[O-])sc2c1CCN(Cc1ccccc1)C2 (stereo not given),inactive
20,O=C(Nc1ccc2c(c1)OCCO2)C1CCCN1S(=O)(=O)c1ccc(Cl)cc1 (stereo not given),"inconclusive [inhibitor, partial curve, poor fit]"
21,CCN(CC)C(=O)CN1CCC(c2nc3cc(C)c(C)cc3[nH]2)CC1,"inconclusive [inhibitor, single point]"
